Measurements: publication PMC4336329 (PLoS ONE, 2015)
About 14,000 (4.5%) of roughly 310,000 compounds showed an effect of 50% or more. Effects have a minus sign here. The list shows a part of the results.

molecular target: human ether-à-go-go-related gene (hERG) potassium channel (human, UniProt Q12809); assay: primary screen, population patch clamp on CHO cells stably expressing hERG
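Further: peak tail current of the secondary pulse compared with the same well before compound.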

Sequence of human ether-à-go-go-related gene (hERG) potassium channel (Q12809 whole entry, looked up): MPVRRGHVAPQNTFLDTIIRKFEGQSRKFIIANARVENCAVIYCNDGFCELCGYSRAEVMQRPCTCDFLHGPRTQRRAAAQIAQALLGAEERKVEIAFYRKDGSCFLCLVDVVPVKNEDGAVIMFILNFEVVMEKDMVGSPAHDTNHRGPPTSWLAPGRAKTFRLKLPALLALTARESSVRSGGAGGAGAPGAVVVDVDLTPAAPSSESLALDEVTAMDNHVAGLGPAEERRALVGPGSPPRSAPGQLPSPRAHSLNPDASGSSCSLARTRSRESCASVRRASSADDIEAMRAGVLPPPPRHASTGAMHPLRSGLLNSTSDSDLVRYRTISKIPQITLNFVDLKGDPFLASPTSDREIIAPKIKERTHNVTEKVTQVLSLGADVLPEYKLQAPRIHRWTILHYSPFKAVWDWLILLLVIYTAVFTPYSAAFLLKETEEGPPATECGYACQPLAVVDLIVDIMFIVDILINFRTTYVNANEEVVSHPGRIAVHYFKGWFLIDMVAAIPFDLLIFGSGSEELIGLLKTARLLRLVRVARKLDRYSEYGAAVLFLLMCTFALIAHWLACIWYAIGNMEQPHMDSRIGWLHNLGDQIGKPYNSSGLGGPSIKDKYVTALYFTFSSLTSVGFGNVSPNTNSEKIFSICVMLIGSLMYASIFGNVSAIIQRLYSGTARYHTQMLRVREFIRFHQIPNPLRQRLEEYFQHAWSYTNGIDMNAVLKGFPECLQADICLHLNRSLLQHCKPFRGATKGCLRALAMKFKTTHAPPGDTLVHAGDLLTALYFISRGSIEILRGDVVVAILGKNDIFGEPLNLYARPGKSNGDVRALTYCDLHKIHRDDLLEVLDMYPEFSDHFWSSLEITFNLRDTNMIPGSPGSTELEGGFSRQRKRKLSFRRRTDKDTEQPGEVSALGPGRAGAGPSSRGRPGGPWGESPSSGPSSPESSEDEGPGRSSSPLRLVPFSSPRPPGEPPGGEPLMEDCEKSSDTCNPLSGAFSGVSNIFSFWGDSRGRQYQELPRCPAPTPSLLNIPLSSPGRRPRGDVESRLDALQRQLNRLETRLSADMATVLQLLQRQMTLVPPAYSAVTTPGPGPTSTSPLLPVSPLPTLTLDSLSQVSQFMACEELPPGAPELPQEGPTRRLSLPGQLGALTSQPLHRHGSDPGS

SMILES | hERG current change (%, negative = inhibition) at 10uM [%]
COc1ccc(Nc2ccc([N+](=O)[O-])cc2[N+](=O)[O-])cc1 | -32.5
COc1ccccc1CNC(=O)C(=O)NCC1OCCCN1S(=O)(=O)c1ccc(F)cc1C (centres unmarked) | 9.82
CC(=O)Nc1ccc(S(=O)(=O)N2CCC(C(=O)O)(c3ccccc3)CC2)cc1 | 17.8
O=S(=O)(NCC(c1ccco1)N1CCN(c2ccc(F)cc2)CC1)c1ccc(F)cc1 (centres unmarked) | -0.721
Cc1c(C(c2cccc(O)c2)c2c(C)n(C)n(-c3ccccc3)c2=O)c(=O)n(-c2ccccc2)n1C | 13.1
COc1ccc(C)cc1NC(=O)c1ccc2c(O)c(S(=O)(=O)c3ccccc3)c(=O)[nH]c2c1 | 8.01
COc1ccc(N2C(=O)/C(=C\c3ccco3)N=C2SCC(=O)N(C(C)C)C(C)C)cc1Cl | 22.7
CC(=O)O.NCC(c1ccco1)c1c[nH]c2ccccc12 (centres unmarked) | 8.43
Cc1c(C(=O)O)cc(C(C)(C)C)n1CCSCCO | 4.77
COC(=O)c1c(NC(=O)CSc2nnc(-c3ccco3)n2Cc2ccccc2)sc(C)c1C | 4.42
CCC(Sc1nc2ccccc2s1)C(=O)Nc1cc(C)on1 (centres unmarked) | 2.98
Oc1ccccc1C1CCCCC1c1ccccc1 (centres unmarked) | 12.5
Cc1ccc(NC(=O)CCNC(=O)c2ccc([N+](=O)[O-])cc2)cc1S(=O)(=O)N1CCOCC1 | -47.4
COc1ccc(CCNC(=O)c2ccc(-c3ccc([N+](=O)[O-])cc3)o2)cc1OC | -60.7
O=C(N/N=C1/CC(c2ccccc2)Oc2ccccc21)C1CC1 (centres unmarked) | -1.94
Cc1ccc(-n2nc(C)c(/C=N/NC(=O)c3cccnc3)c2Cl)cc1 | -1.52
CCOc1ccc(-n2c(COc3ccccc3)nnc2SCC(N)=O)cc1 | -13.8
COc1ccc(C(=O)NCc2cnn(C)c2)cc1OC1CCN(C(C)C)CC1 | 21.9
O=S(=O)(c1cccc(C(F)(F)F)c1)c1ccc(O)cn1 | 0.938
S=C(NCCOCCOCCNC(=S)Nc1ccccc1)Nc1ccccc1 | -15.5
CCOC(=O)c1c(S(=O)(=O)Nc2cccc(-c3ccno3)c2)c(C)n(C)c1C | 6.78
Nc1ccc(C2(c3ccc(N)cc3)CCCCC2)cc1 | 22.1

SMILES | hERG current change (%, negative = inhibition) at 10uM [%]
CCn1cnc2sc(C(=O)Nc3ccc4c(c3)OCO4)c(C)c2c1=O | 0.755
O=C(NCc1n[nH]c(=S)n1-c1cccc(C(F)(F)F)c1)c1ccco1 | 18.6
CC(C)(C)n1ncc2c(=O)n(CC(=O)Nc3ccc(Cl)cc3)cnc21 | -11.2
Cn1c(=O)c(=O)n(C)c2cc(S(=O)(=O)N3CCN(C4CCCCC4)CC3)ccc21 | -18.7
CCCN(CCC)S(=O)(=O)c1ccc(NC(=O)C2CCCO2)cc1 (centres unmarked) | -64.4
Cc1ccc(S(=O)(=O)N2CCN(Cc3cccc(C)c3O)CC2)cc1 | 16.5
Cc1ccc2nc(C)cc(NCCO)c2c1.Cl | -26.4
COc1ccc(OCC(=O)Nc2ccc3c(c2)C(=O)NC3=O)cc1 | 10.1
c1ccc2c(-c3nc(C4CCCCC4)no3)cc(-c3ccncc3)nc2c1 | -3.96
Cc1nc2ccccn2c1C(=O)NC1CCCC1 | 16.2
CCN(CC)CC#CCC(O)(c1ccccc1)c1ccccc1 | -25.1
Cc1ccc(C(=O)NCC(=O)OCCCOC(=O)CNC(=O)c2ccc(C)cc2)cc1 | -1.87
Nc1c(C=C2C=CC(=O)C=C2)c(=O)nc2sc(CC(=O)N3CCCC3)nn12 | 8.79
Cc1ccc(CNc2ccc3c(c2)ncn3C(C)C)cc1 | -78.3
O=C(NCC1CCCO1)c1ccc(COCC(F)(F)C(F)F)cc1 (centres unmarked) | -10.5
Cc1ccc(S(=O)(=O)Cn2nnnc2C(c2ccc(F)cc2)N2CCC(C(N)=O)CC2)cc1 (centres unmarked) | -44.1
COc1ccc(C2C3=C(CC(C)(C)CC3=O)N(C)C3=C2C(=O)CC(C)(C)C3)cc1OC | 4.58
Cc1ccc(-c2nc(CN(C)Cc3ccc4nccnc4c3)c(C)o2)s1 | -10.3
NC(=O)C1CC(=O)N(c2ccc(OCc3ccc(Cl)cc3Cl)cc2)C1 (centres unmarked) | -4.2
O=C1CCCN1CC(O)CS(=O)(=O)c1ccc(Cl)cc1 (centres unmarked) | 16.7
CSc1cccc(NC(=S)N2CCC(N(C)C3CCCCC3)CC2)c1 | -64.4
NC(=O)C1CCCN(C(=O)c2ccc(S(=O)(=O)N3CCCCCC3)cc2)C1 (centres unmarked) | -6.23

SMILES | hERG current change (%, negative = inhibition) at 10uM [%]
CCOC(=O)c1oc2ccccc2c1COC(=O)CNC(=O)c1ccc(C)cc1 | -18.7
CCc1nnc(NC(=O)c2cc(S(=O)(=O)N(CC)CC)ccc2Cl)s1 | -7.31
CCn1c(=O)cc(SCC(=O)N2CCN(C(=O)c3ccco3)CC2)c2ccccc21 | -31.8
COc1cc(C(=O)OCC(=O)Nc2sccc2C(N)=O)cc(OC)c1OC | 46.2
O=C(/C=C/c1ccccc1)c1cc(Br)ccc(=O)c1O | -0.716
O=C1C(Cl)=C(NCC2CCCO2)C(=O)N1C1CCCCC1 (centres unmarked) | 8.8
NC(=O)C1(NC(=O)[C@@H]2CC3(CC(c4cccc(NC(=O)[C@@H]5CCC(=O)N5)c4)=NO3)CN2C(=O)c2cnccn2)CC1 (some centres unmarked) | 10.3
CC(C)OCCCN(C)C1CCN(S(=O)(=O)c2ccc(-c3ccc(=O)[nH]n3)s2)CC1 | -35.8
CCOc1ccc(C(C)=O)cc1N1C(=O)C2C3C=CC(C3)C2C1=O (centres unmarked) | 8.85
CCc1ccccc1NC(=O)CC(O)(C(=O)OC)C(F)(F)F (centres unmarked) | 13.3
NC(=O)c1cc2ccc(O)cc2oc1=NCc1ccccc1 | -18.8
CCC1(c2ccccc2)NC(=O)N(CC(=O)Nc2cccnc2Cl)C1=O (centres unmarked) | 18.1
CN1CSC2=C(C#N)C(c3cccc(OCc4ccccc4)c3)CC(=O)N2C1 (centres unmarked) | -6.57
CCOc1ccc(NC(=O)CSc2ncn[nH]2)c([N+](=O)[O-])c1 | 10.6
COc1ccc(CCNC(=O)CCCCCn2c(SCC(N)=O)nc3cc4c(cc3c2=O)OCO4)cc1OC | -2.91
CC(C)(C)c1ccc(Oc2ccc(N)cc2)cc1 | 8.32
COC(=O)C1CN(C(=O)C(C)Oc2ccc(C)c(C)c2)c2ccccc2O1 (centres unmarked) | -37.5
CC(=O)c1cc2c(cc1NC(=O)CN1CCCCC1C)OCO2.O=C(O)C(=O)O (centres unmarked) | 0.64
O=C1c2cccc(Cl)c2C(=O)N1c1ccccn1 | 9.65
COc1ccc(NC(=O)CCSc2ccc(C)cc2)cc1 | -3.34
Br.Cc1nc(-c2ccc(C(=O)O)cc2)cs1 | 7.39
CCCN(CCC)C(=O)c1cc2c(=O)[nH]c3ccc(C)cc3c2s1 | 26.3

SMILES | hERG current change (%, negative = inhibition) at 10uM [%]
CCOC(=O)c1c(Nc2ccccc2N)cc(C)nc1C | -13.9
COc1cccc(NC(=O)CSc2nnc(COc3ccc4c(c3)CCCC4)o2)c1 | 5.23
COC(=O)C1=C(C)N(CCCC(=O)O)C(=O)NC1c1ccc([N+](=O)[O-])cc1 (centres unmarked) | 14.6
O=C(CCC(=O)OCc1cccc([N+](=O)[O-])c1)Nc1ccc(F)cc1 | 12.5
COc1ccc2oc(=O)c(C(=O)NCc3ccc4c(c3)OCO4)cc2c1 | 12.7
CCCCN(Cc1ccccc1)c1ncnc2nc[nH]c12 | 6.29
NC(=O)COc1cccc2cccnc12 | 6.08
OCCC1CN(Cc2cccn2-c2ccccn2)CCN1C1CCCCC1 (centres unmarked) | -57.1
COC(=O)c1cc(S(=O)(=O)Nc2c(C)cccc2C)cn1C | -3.98
COc1cc(CC(=O)N2C[C@H]3C[C@@H](C2)c2cccc(=O)n2C3)cc(OC)c1OC | 6.29
O=C(NNC(=O)c1ccc2[nH]c(=O)c(=O)[nH]c2c1)c1cccc(Br)c1 | 3.95
COc1ccc(NC(=O)CSc2nc3ccccc3nc2N2CCCCC2)cc1 | -4.58
C=CCn1cccc(C(=O)Nc2ccc(F)cc2)c1=O | -24.8
CCCC(=O)Nc1ccc2c(c1)nc(CN1CCN(C(=O)OCC)CC1)n2CC | 9.54
O=C(NCc1ccccc1)c1cc(-c2ccncc2)nc2ccccc12 | -34
O=C(C[n+]1ccccc1)N/N=C/c1ccc(Cl)cc1.[Cl-] | -5.76
Cc1ccc(S(=O)(=O)N(C)C)cc1NC(=O)COC(=O)CCC1CCCCC1 | 2.99
Cn1c(=O)cc(SCC(=O)NCc2cccnc2)c2ccccc21 | 5.03
CN(C)/C=C(\C=O)c1onc(-c2ccccc2Cl)c1C#N | 1.62
Cc1c(CCC(=O)O)c(=O)oc2cc3occ(-c4ccccc4)c3cc12 | -27.8
